Measured values taken from ChEMBL document CHEMBL1201862, “PubChem BioAssay data set” (2004).
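All cell lines were grown in 96-well plates and treated with compound for 48 hours. GI50 = concentration required for 50% inhibition of growth.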 Activity calls are given as the source filed them. Rule as the data show it: active = GI50 up to about 1.1 µM and inactive = higher.

These compounds were tested on NCI-H322M (assay: growth of human tumour cells (NCI), 48 h).
`N#CC(=C1CCCCC1)c1nc2ccccc2o1` was tested, and the GI50 was inactive: > 100 µM. With `CSc1ccc(-c2cc(-c3nc4ccccc4[nH]3)no2)cc1` the GI50 was inactive: 39.4 µM. For `COc1cc(C)cc(OC)c1/C=C/C(=O)O`, the GI50 was inactive: > 100 µM. With `COCN1C(=O)[C@@H]2CCCN2C(=O)c2ccc([N+](=O)[O-])cc21` the GI50 was inactive: > 100 µM. For `N#Cc1c(NC(=S)NC(=O)c2ccccc2)nc2c(c1-c1ccccc1)CCCC2`, the GI50 was inactive: > 100 µM. For `CC(=O)c1ccc2c(c1)CC1(C2)Cc2ccc3c(c2C1=O)CCC3` (stereo not given), the GI50 was inactive: 31.2 µM. With `NC(Cc1ccc(S(=O)(=O)O)cc1)C(=O)NC(Cc1ccc(S(=O)(=O)O)cc1)C(=O)O` (stereo not given) the GI50 was inactive: > 100 µM. With `CC1CC(C)[C@H](O)C([C@H](O)CC2CC(=O)N(C)C(=O)C2)C1` (stereo not given in full) the GI50 was inactive: > 100 µM. In the case of `CCOC(=O)/C=C(/C)Nc1nc2c(c(C(=O)OC)c1C#N)CCCC2`, the GI50 is reported as inactive: > 100 µM. In the case of `O=C1/C(=C2\Sc3c(ccc(Cl)c3Cl)C2=O)Sc2c1ccc(Cl)c2Cl`, the GI50 is reported as inactive: > 100 µM. With `COc1ccc2c(c1)CN1C(=N2)CSC1c1c(Cl)cccc1[N+](=O)[O-]` (stereo not given) the GI50 was inactive: 29.7 µM. In the case of `O=C(c1ccc(Cl)cc1)N(Cc1cccnc1)C(=S)N(Cc1cccnc1)C(=O)c1ccc(Cl)cc1`, the GI50 is reported as inactive: 30.6 µM. With `COc1cc(/C=C2/SC(c3ccccc3)N(c3ccccc3Cl)C2=O)cc(OC)c1OC` (stereo not given) the GI50 was inactive: 35.8 µM. `CCC1(O)C(=O)OCc2c1cc1n(c2=O)Cc2cc3cc4c(cc3nc2-1)OCO4` (stereo not given) was tested, and the GI50 was active: 0.0333 µM. `CC(C)(CN1CCCCC1)C(=O)/C=C/c1ccc(Cl)c(Cl)c1` was tested, and the GI50 was inactive: > 100 µM. With `COc1cccc2cc(C(=O)Nc3ccccc3)c(=N)oc12` the GI50 was inactive: > 100 µM. With `CC(=O)C1(O)CCC2(O)C3(O)CC=C4CC(O)CCC4(C)C3CC(OC(=O)c3ccc(O)cc3)C12C` (stereo not given) the GI50 was inactive: > 100 µM. `COc1ccc(/C=C/c2nccc3ccccc23)cc1OC` was tested, and the GI50 was inactive: > 10 µM. `CC1S/C(=N\N=C2/C(=O)Nc3ccc(Br)cc32)N(C2CCCCC2)C1=O` (stereo not given) was tested, and the GI50 was inactive: 1.8 µM. With `O=C1c2ccccc2C(=O)c2nc(-c3ccccc3)c(-c3ccccc3)nc21` the GI50 was inactive: > 49.7 µM. For `[O-]/[N+](=N\c1ccccc1CO)c1ccccc1CO`, the GI50 was inactive: > 100 µM. In the case of `COc1cccc2c(Nc3ccc(S(=O)(=O)N=C(N)N)cc3)c3ccc([N+](=O)[O-])cc3nc12`, the GI50 is reported as inactive: 19.8 µM. With `CC1(C)COC(C2(C)C(=O)C=C(c3ccccc3)c3ccccc32)=N1` (stereo not given) the GI50 was inactive: > 100 µM. In the case of `CC(=O)OC(=O)O/C=C\CCl`, the GI50 is reported as inactive: > 100 µM. With `Clc1ccc(CSc2ncnc3c2ncn3C2CCCCO2)cc1` (stereo not given) the GI50 was inactive: 40.2 µM. `COc1cc(C2C(C(=O)O)=C(C)Oc3cc4c(cc32)OCO4)cc(OC)c1OC` (stereo not given) was tested, and the GI50 was inactive: 37 µM. `COc1ccc2c(c1)C(N)=C(c1ccccc1)C2=O` was tested, and the GI50 was inactive: > 100 µM. With `C=C(C)[C@H]1CC23C(=O)C(C(=O)C(C)C)=C(O)[C@](C)(C[C@H]2C1(C)C)C3=O` [LALIBINONE B] the GI50 was inactive: 19.5 µM. `CCN(CC)C(=S)SC(C(=O)Nc1nnc(-c2ccc(Cl)cc2)o1)c1ccccc1` (stereo not given) was tested, and the GI50 was inactive: 18.5 µM. For `COc1cc2c(cc1O)C1Cc3ccc(OC)c(O)c3C[N+]1(C)CC2` (stereo not given), the GI50 was inactive: > 100 µM. In the case of `Cc1cc(C)c(C(=O)/C=C/c2ccccc2)c(C)c1`, the GI50 is reported as inactive: > 10 µM. In the case of `CCn1c2ccccc2n2c(=O)c3c(c(C#N)c12)CCCC3`, the GI50 is reported as inactive: > 100 µM. With `Cc1cc2nc3c(=O)n(C)c(=O)nc-3n(-c3ccc(Cl)cc3)c2cc1C` the GI50 was inactive: 13.2 µM. In the case of `CCOC(=O)COc1cccc2occc(=O)c12`, the GI50 is reported as inactive: > 100 µM. `c1ccc2c(c1)SC1=C(SC(=C3SC4=C(S3)Sc3ccccc3S4)S1)S2` was tested, and the GI50 was inactive: > 100 µM. `CCCCCn1c(=O)c2c(=O)[nH][nH]c2c2ccccc21` was tested, and the GI50 was inactive: > 100 µM. `c1ccc(/N=C2\SC(=NNc3ccccc3)S\C2=N/c2ccccc2)cc1` was tested, and the GI50 was inactive: > 100 µM. For `CCOC(=O)C1=C(C)N(Cc2ccccc2)C(C)=C(C(=O)OCC)C1c1ccccc1O`, the GI50 was inactive: 95.9 µM. With `Cc1cccc(NS(=O)(=O)c2ccc3c(c2)OCCOCCOCCOCCO3)c1` the GI50 was inactive: > 100 µM. With `CSc1c(C#N)c(O)n(-c2ccc(C)cc2)c(=O)c1C(C)=O` the GI50 was inactive: > 100 µM. In the case of `Cn1c2ccccc2c2c3c(c4c5ccccc5n(C)c4c21)C(=O)N(Cc1ccccc1)C3=O`, the GI50 is reported as inactive: > 100 µM. `O=S(=O)(O)c1ccc(/N=N/c2c(O)ccc3ccccc23)cc1` was tested, and the GI50 was inactive: > 100 µM. In the case of `CCOP(=O)(/C=C\n1cc(C)c(=O)[nH]c1=O)OCC`, the GI50 is reported as inactive: > 100 µM. For `CC(=O)OC1CCC2C(=CCC3C2(C)C(=O)CC2(C)C(C4(C)OC(C(C)C)=CC4=O)C(O)CC32C)C1(C)C` (stereo not given), the GI50 was inactive: 50.1 µM. With `CCOC(=O)C(C)c1c(C(=O)c2ccc(C)nc2)c2ccccc2n1C` (stereo not given) the GI50 was inactive: > 100 µM. For `COc1ccc2nc3cccc(C(=O)NCCN(C)C)c3nc2c1`, the GI50 was inactive: 1.53 µM. For `COc1ccc(C2CC(C)(O)Oc3cc4c(cc32)OCO4)cc1` (stereo not given), the GI50 was inactive: 46.2 µM. In the case of `COc1ccc(C2C3CCc4ccccc4C3=NN2S(=O)(=O)c2ccc(Cl)cc2)cc1` (stereo not given), the GI50 is reported as inactive: 72.8 µM. For `CC(C)NC(=O)OCc1c2c(n(C)c1COC(=O)NC(C)C)-c1cc(Cl)c(Cl)cc1CC2`, the GI50 was inactive: 51.2 µM. For `OC(CC1CCCCN1)c1ccc2c(c1)oc1ccccc12` (stereo not given), the GI50 was inactive: > 100 µM. With `N=C(Cc1ccccc1)NCC(=O)O` the GI50 was inactive: > 100 µM. `O=C(O)c1nn[nH]c1S` was tested, and the GI50 was inactive: > 100 µM. With `O=c1c(Cl)c(Cl)cnn1CCc1ccncc1` the GI50 was inactive: 17.3 µM. With `Clc1ccc(Nc2nnc(CCCCCCCCc3nnc(Nc4ccc(Cl)cc4)o3)o2)cc1` the GI50 was inactive: 37 µM. With `Cc1cc(S(=O)(=O)Nc2nc(N)nc(N3N=CCC3C)n2)c(S)cc1Cl` (stereo not given) the GI50 was inactive: > 10 µM. `c1ccc(-c2nnc(CCCCCCCCc3nnc(-c4ccccc4)o3)o2)cc1` was tested, and the GI50 was inactive: 72.1 µM. `CN(CCc1ccc(Br)cc1)CCN1CCCCC1` was tested, and the GI50 was inactive: 81.5 µM. In the case of `O=C1C(Cl)=C(N2CCOCC2)C(=O)c2c(O)ccc(O)c21`, the GI50 is reported as inactive: 1.75 µM. `CC(C)(C)C(=O)ON1N=NC2C3CC(OCc4ccccc4)(OCc4ccccc4)C(O3)C21` (stereo not given) was tested, and the GI50 was inactive: 33.3 µM. `C[C@]12CC[C@H](O)CC1=CC[C@@H]1C2CC[C@]2(C)NC(=O)C(C#N)CC12` (stereo not given in full) was tested, and the GI50 was inactive: 47.2 µM. For `COc1ccc(/C=N/C23CC4CC(CC(C4)C2)C3)cc1`, the GI50 was inactive: > 100 µM. For `CCOC(OCC)(OCC)C(Br)CC` (stereo not given), the GI50 was inactive: > 100 µM. For `NS(=O)(=O)c1ccc(NNC(=O)c2cccc3c(=O)c4ccccc4[nH]c23)cc1`, the GI50 was inactive: 48.1 µM. In the case of `CCCC1C(=O)CCc2c(OC)ccc(OC)c21` (stereo not given), the GI50 is reported as inactive: > 100 µM. `CCCC/C=C/C1Cc2ccccc2CN1S(=O)(=O)c1ccc(C)cc1` (stereo not given) was tested, and the GI50 was inactive: 40.6 µM. With `CCOC(=O)N/N=C(\Cc1ccccc1)OCC` the GI50 was inactive: > 100 µM. For `CCN1CC2=C(OC(N)=C(C#N)C2c2ccc(Cl)cc2)/C(=C/c2ccc(Cl)cc2)C1` (stereo not given), the GI50 was inactive: 30.7 µM. `COc1ccc(OC)c([N+](=O)[O-])c1-c1nc2sccn2c1/C=N/N=C(N)N` was tested, and the GI50 was inactive: 64.1 µM. In the case of `CO/N=C(\C)CCC#Cc1ccccc1C(=O)OC`, the GI50 is reported as inactive: > 10 µM. `CC(=O)OC12CC(C)C3(O)C4C=C(C)C(=O)[C@@]4(O)CC(CO)=C[C@H]3C1C2(C)C` (stereo not given in full) was tested, and the GI50 was inactive: > 10 µM. For `NC1=NC(Cn2nc(-c3ccccc3)c3ccccc3c2=O)=NNC(=O)N1`, the GI50 was inactive: > 100 µM. `N#CC(C#N)=C1c2ccccc2C(=NN)c2ccccc21` was tested, and the GI50 was inactive: > 100 µM. With `CC(=O)C1C(=O)C(=O)N(c2ccc(Cl)cc2C)C1=O` (stereo not given) the GI50 was inactive: > 100 µM. `O=c1/c(=C/c2ccc(-c3ccc(Cl)cc3Cl)o2)sc2n1[C@@H](c1ccc(Cl)cc1)C=C(c1cc(F)c(Cl)cc1Cl)N=2` was tested, and the GI50 was inactive: 48 µM. For `CC(=O)OC[C@@]12C[C@H]3C(=O)C(C)(C)C[C@H]3[C@]1(C)[C@@H](OC(C)=O)[C@]1(O)[C@H]([C@@H](OC(=O)c3ccccc3)[C@@H](C)[C@H]1OC(C)=O)[C@H]2OC(C)=O`, the GI50 was inactive: > 20 µM. In the case of `CS(=N)(=O)CCC(N)P(=O)(O)O` (stereo not given), the GI50 is reported as inactive: > 100 µM. With `C[N+](C)(N)CCC[N+](C)(C)N` the GI50 was inactive: > 100 µM. For `CCOC(=O)C(Cc1cn(S(=O)(=O)c2ccc(C)cc2)cn1)P(=O)(OCC)OCC` (stereo not given), the GI50 was inactive: > 100 µM. `N#Cc1c(=O)c2cccnc2n2c1[nH]c1ccccc12` was tested, and the GI50 was inactive: > 100 µM. For `O=C1C=CC(=O)c2c(O)nc(CBr)nc21`, the GI50 was inactive: > 100 µM. `CC1CCCCNC1=S` (stereo not given) was tested, and the GI50 was inactive: > 10 µM. For `c1ccc(/N=C(\N2CCOCC2)N(CCN2CCOCC2)c2ccccc2)cc1`, the GI50 was inactive: > 100 µM. With `CN(C)CCOc1cc2c(c3ccccc13)-c1ccccc1C2=O` the GI50 was inactive: 2.32 µM. `CC1=C(C(=O)Nc2ccccc2C)C(c2ccc(N(C)C)cc2)C(C(=O)Nc2ccccc2C)=C(C)N1` was tested, and the GI50 was inactive: 61.5 µM. With `COc1ccc(N2C(=O)C3CC(c4ccc(C)cc4)c4c([nH]c5ccccc45)C3C2=O)cc1` (stereo not given) the GI50 was inactive: 14.8 µM. For `C=C(C)CC1(O)C(=O)C(OCC)=C1OCC` (stereo not given), the GI50 was inactive: > 100 µM. `NC(=O)/N=C1\NCCC(=O)N1CCc1c[nH]c2ccccc12` was tested, and the GI50 was inactive: 23.2 µM. For `COC(=O)C1=C(C(=O)OC)C(C(=O)OC)C(C(=O)OC)C(C(=O)OC)(C(=O)OC)C(C(=O)OC)=C1C(=O)OC` (stereo not given), the GI50 was inactive: 19.8 µM. In the case of `O=C(O)CCC(=O)c1ccc[nH]1`, the GI50 is reported as inactive: > 100 µM. For `COc1cc2c(cc1OCCCCCN1C(=O)c3cccc4cccc(c34)C1=O)N=C[C@@H]1CCCN1C2=O`, the GI50 was inactive: 1.54 µM. For `O=C1N(CN2CCOCC2)CN(CN2CCOCC2)C(=O)N1Cc1ccccc1`, the GI50 was inactive: > 100 µM. With `CN(C)CCOc1ccc([N+](=O)[O-])c2cccnc12` the GI50 was inactive: 51.5 µM. `CCN(CC)C(=O)c1c(N2CCOCC2)cc(N(CC)CC)oc1=O` was tested, and the GI50 was inactive: > 100 µM. `CCC(=O)OCN1C(=O)C=CC1=O` was tested, and the GI50 was inactive: > 43.9 µM. `C=C1C(=O)O[C@@H]2CC(CO)=C([C@@H](C)CCCO)[C@@H](OC(=O)/C(C)=C\C)[C@H]12` was tested, and the GI50 was inactive: 26 µM.
